Experimental data published in PubChem BioAssay (NCI).
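Exposure lasted 48 hours, with cells grown in 96-well plates and compounds tested at five concentrations. The concentration for 50% growth inhibition is given as GI50.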 The source holds more than one record for some entries. They are shown here; other results are not. There may be further records. Results that share an entry are repeats in other runs, samples, wells, individuals or studies. Marks in square brackets tell the records apart. Letters count within one entry.

Key:
Test in all cases: DTP human tumour cell line panel, 48 h
[1] = test system: UO-31 renal
[2] = test system: A549 NSCLC
[3] = test system: HCT-116 colon
[4] = test system: HT29 colon
[5] = test system: IGROV1 ovarian

| SMILES | GI50 [1] | GI50 [2] | GI50 [3] | GI50 [4] | GI50 [5] |
| --- | --- | --- | --- | --- | --- |
| OCC1OC(n2cnc3c(=S)nc[nH]c32)C(O)C1O (stereo not given) | 18.5 µM [sample A, 1 test] and > 2.5 mM [sample B, mean of 8 tests] | – | – | – | – |
| c1ccc(P(CCP(CCP(c2ccccc2)c2ccccc2)c2ccccc2)CCP(c2ccccc2)c2ccccc2)cc1 (stereo not given) | – | > 10 µM [sample A, 1 test] and 784 nM [sample B, 1 test] | > 10 µM [sample A, 1 test] and 985 nM [sample B, mean of 2 tests] | > 10 µM [sample A, 1 test] and 787 nM [sample B, mean of 2 tests] | > 10 µM [sample A, 1 test] and 538 nM [sample B, 1 test] |
